This is one part of the list. One pool of 16,384 single-stranded DNAs met each Rep nickase domain in vitro at 3 µM enzyme and 37 °C for 1 h; the strands have 90 letters, of which the middle is given. Values are log2 of uncut reads against the no-enzyme pool; more negative means more cut, near 0 not cut, and no call is made. The scaling is to total reads; values above 0 arise when much of the pool is cut.
Tested on: T1, Rep nickase domain of maize striate mosaic virus
T1 sequence (protein, residues 1-117, tag omitted): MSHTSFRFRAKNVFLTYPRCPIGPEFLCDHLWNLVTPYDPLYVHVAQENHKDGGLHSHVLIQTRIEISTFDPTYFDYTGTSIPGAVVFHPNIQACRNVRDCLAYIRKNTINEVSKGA
Assay: uncleaved DNA left, log2 of reads against the no-enzyme library (log2 ratio); higher = less cleavage (more negative = more Rep cleavage of the k-mer); sequences stand for … in CTCGTCCG…ACCGGAGA
Procedure: (§1)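 A pool of 90-nt single-stranded DNAs with seven random bases just before the constant AC of the nick site (name = the seven bases) was cut by 3 µM recombinant His6-SUMO-tagged Rep nickase domain (300 nM DNA, 50 mM HEPES pH 8.0, 50 mM NaCl, 1 mM MnCl2, 1 h, 37 °C, three replicates). Uncut DNA was amplified and sequenced.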

| Sequence | uncleaved DNA left (log2) |
| --- | --- |
| ATATCCG | -1.07 |
| GATGGCA | 0.401 |
| GATTCGC | -0.982 |
| ACGTAGT | -0.622 |
| AGCCCAA | 1.12 |
| CGCATGA | -0.141 |
| CCAAGGT | 1.44 |
| GAGCATT | 2.06 |
| AGCGGCT | 1.66 |
| GTAGCGG | 0.84 |
| TAAACAC | -0.733 |
| CCGGATG | 0.564 |
| TGGGATT | 2.04 |
| CAAATGT | -1.26 |
| TCTGGTT | 1 |
| ACGATAG | -1.1 |
| TGCCACG | -0.941 |
| GTACGCA | 0.624 |
| AGTCAAA | -0.0069 |
| TCGAAGA | -0.531 |

| Sequence | uncleaved DNA left (log2) |
| --- | --- |
| TAGGTGC | -1.07 |
| TTTTCAC | -0.199 |
| GATAAAT | 1.31 |
| AGCCACG | -0.932 |
| GTCACCT | 1.42 |
| ATGAAGC | -1.09 |
| TAGCACC | -0.179 |
| AGCAGAA | 0.456 |
| GTAGATT | 1.71 |
| CCAGTTT | -0.482 |
| GTGTATA | 1.79 |
| GACGGGG | 1.71 |
| AATGCCG | -0.968 |
| CTGATCG | -0.649 |
| TAAGCTT | -0.121 |
| ATTGTGC | -1.05 |
| GCATTAG | -1.06 |
| AGGGAGT | 1.74 |
| GGTACAG | 2.21 |
| CGCTGGT | 0.249 |

Tested on: T2, Rep nickase domain of porcine circovirus 2
T2 sequence (protein, residues 2-116, tag omitted): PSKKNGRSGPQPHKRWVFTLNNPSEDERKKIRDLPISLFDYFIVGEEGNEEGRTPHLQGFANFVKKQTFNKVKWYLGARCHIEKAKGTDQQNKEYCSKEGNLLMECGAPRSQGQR
Assay: as above
Procedure: as §1

| Sequence | uncleaved DNA left (log2) |
| --- | --- |
| ATATCCG | 0.123 |
| GATGGCA | 0.107 |
| GATTCGC | 0.0334 |
| ACGTAGT | -3.41 |
| AGCCCAA | -0.0273 |
| CGCATGA | 0.195 |
| CCAAGGT | 0.197 |
| GAGCATT | -2.53 |
| AGCGGCT | 0.129 |
| GTAGCGG | 0.111 |
| TAAACAC | -0.0359 |
| CCGGATG | 0.0862 |
| TGGGATT | 0.159 |
| CAAATGT | -0.228 |
| TCTGGTT | -0.236 |
| ACGATAG | 0.253 |
| TGCCACG | 0.204 |
| GTACGCA | -0.0039 |
| AGTCAAA | -0.476 |
| TCGAAGA | 0.177 |

| Sequence | uncleaved DNA left (log2) |
| --- | --- |
| TAGGTGC | -0.025 |
| TTTTCAC | 0.128 |
| GATAAAT | -0.494 |
| AGCCACG | 0.106 |
| GTCACCT | -0.0621 |
| ATGAAGC | 0.144 |
| TAGCACC | -0.171 |
| AGCAGAA | -0.0283 |
| GTAGATT | -0.0558 |
| CCAGTTT | -0.282 |
| GTGTATA | 0.0175 |
| GACGGGG | 0.196 |
| AATGCCG | 0.125 |
| CTGATCG | -0.0785 |
| TAAGCTT | -0.654 |
| ATTGTGC | 0.11 |
| GCATTAG | 0.142 |
| AGGGAGT | 0.0614 |
| GGTACAG | 0.221 |
| CGCTGGT | -0.727 |

Tested on: T3, Rep nickase domain of tomato golden mosaic virus
T3 sequence (protein, residues 1-124, tag omitted): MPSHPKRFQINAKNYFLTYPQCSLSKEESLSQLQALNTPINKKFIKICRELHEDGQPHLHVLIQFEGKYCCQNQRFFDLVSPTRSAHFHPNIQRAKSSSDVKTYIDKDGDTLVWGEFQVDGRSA
Assay: as above
Procedure: as §1

| Sequence | uncleaved DNA left (log2) |
| --- | --- |
| ATATCCG | -0.048 |
| GATGGCA | 0.0323 |
| GATTCGC | -0.104 |
| ACGTAGT | 0.121 |
| AGCCCAA | -0.123 |
| CGCATGA | 0.104 |
| CCAAGGT | 0.188 |
| GAGCATT | -0.0485 |
| AGCGGCT | 0.0957 |
| GTAGCGG | 0.126 |
| TAAACAC | -0.123 |
| CCGGATG | 0.0923 |
| TGGGATT | -0.0634 |
| CAAATGT | -0.194 |
| TCTGGTT | -0.0347 |
| ACGATAG | 0.105 |
| TGCCACG | -0.131 |
| GTACGCA | 0.0413 |
| AGTCAAA | 0.216 |
| TCGAAGA | 0.0689 |

| Sequence | uncleaved DNA left (log2) |
| --- | --- |
| TAGGTGC | -0.215 |
| TTTTCAC | -0.000841 |
| GATAAAT | 0.0726 |
| AGCCACG | 0.0747 |
| GTCACCT | 1.37e-06 |
| ATGAAGC | 0.0406 |
| TAGCACC | 0.00533 |
| AGCAGAA | 0.117 |
| GTAGATT | 0.163 |
| CCAGTTT | -0.22 |
| GTGTATA | 0.156 |
| GACGGGG | 0.0933 |
| AATGCCG | -0.0928 |
| CTGATCG | -0.141 |
| TAAGCTT | -1.76 |
| ATTGTGC | -0.0971 |
| GCATTAG | -0.113 |
| AGGGAGT | 0.0883 |
| GGTACAG | 0.0974 |
| CGCTGGT | -0.0955 |

Reference: the supplement of paper PMC7826260
